Several values for one entry are separate records, joined by “and”; a condition that tells them apart may be missing. Equal entries are not always repeated. About 4,000 (4.3%) of roughly 94,000 compounds were called active. Inconclusive means that the source gave no clear call. Such entries were picked first, then a sample of the others. The call rests on the fitted dose curve; in most records, active means well fitted inhibition curve with a large enough effect; inconclusive means small, poorly fitted or top-dose-only effect; inactive means no such curve, though single readings can be large or run the other way. A potency beside an inconclusive call is a rough fit, not a confirmed value. Where a structure was tested more than once in an assay, its records may differ in their call.
Test: Cytotoxic Profiling in NIH 3T3 Cell Line of Diverse Libraries Using Quantitative High-Throughput Screening; further: nearly all actives have a fitted effect of over 55% in size
Conditions: NIH 3T3 viability, CellTiter-Glo ATP luminescence, 48-72 h; activity change, negative = cytotoxicity: at 96.7 µM (top of the series); series mostly up to 96.7 µM
Summary of the method: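 Cytotoxicity is measured as loss of cellular ATP: NIH 3T3 cells (400/well) are exposed to compound for 48 or 72 hr at 37 °C, then CellTiter-Glo luminescence is imaged after 10 min at room temperature.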
On the % scale 0 is the no-effect control and ±100 the full control effect; potency means the concentration at half of the fitted maximal effect; tags describe the fitted curve by direction and shape.

Row | Compound | Potency | activity change, negative = cytotoxicity | outcome
1 | CN1CCN(C(=O)c2cn3cc(-c4ccc(F)cc4)sc3n2)CC1 | active: 79.4 µM | – | –
2 | CC(=O)N(C1CCOCC1)C1CCN(C(=O)c2ccc(C)s2)CC1 | – | inactive: -21.5% | –
3 | O=C(NC1CCOCC1)C1CCCN(Cc2cccc(-c3ccc(F)cc3F)c2)C1 (stereo unspecified) | inconclusive: 50.1 µM [inhibitor, partial curve, poor fit] | – | –
4 | O=C1CCCN1Cc1noc(-c2ccccc2)n1 | – | inactive: 1.37% | –
5 | CCc1ccc(N2CC(c3noc(-c4cccc(OC)c4OC)n3)CC2=O)cc1 (stereo unspecified) | active: 28.2 µM | – | –
6 | Cc1ccc(Nc2ccnc(N3CCC(NC(=O)c4ccccc4Cl)CC3)n2)cc1 | active: 39.8 µM | – | –
7 | CCN(CC)Cc1cnc2c(C(=O)Nc3cccc(OC)c3)cnn2c1 | – | inactive: -17.4% | –
8 | O=C(NCCNC(=O)C1CCCC1)c1cccc(-c2ccsc2)c1 | inconclusive: 89.1 µM [inhibitor, partial curve] | – | –
9 | O=C(Nc1ccc(F)cc1)N1CCC(Oc2ncccc2C(=O)N2CCOCC2)C1 (stereo unspecified) | inconclusive: 44.7 µM [inhibitor, partial curve, poor fit] | – | –
10 | O=C(NCc1ccc(F)cc1)C1CCN(c2cnn(Cc3ccccc3)c(=O)c2)C1 (stereo unspecified) | inconclusive: 39.8 µM [inhibitor, partial curve, poor fit] | – | –
11 | COc1ccc(OC)c(NC(=O)Cn2c(C)cc3nc4n(c(=O)c32)CCCCC4)c1 | inconclusive: 10 µM [inhibitor, partial curve, poor fit] | – | –
12 | Cc1nn(C)c2nc(N3CCC(C#N)(c4ccccc4)CC3)sc12 | inconclusive: 56.2 µM [inhibitor, partial curve, poor fit] | – | –
13 | Cc1ccccc1-c1ccnc(-c2nnc(C)n2Cc2ccncc2)c1 | – | inactive: -15.2% [at 138 µM] | –
14 | CSc1cccc(NC(=O)CN2C(=O)NC3(CCC(C)CC3)C2=O)c1 (stereo unspecified) | inconclusive: 39.8 µM [inhibitor, partial curve] | – | –
15 | O=C(NCc1ccc2c(c1)OCO2)C1CN(c2ccc(F)cc2)C(=O)N1 (stereo unspecified) | – | inactive: -12.5% | –
16 | Cc1cc(C(=O)N2CCCCC2c2noc(COc3ccc(F)cc3)n2)n[nH]1 (stereo unspecified) | inconclusive: 44.7 µM [inhibitor, partial curve, poor fit] | – | –
17 | Cc1nn2c(c1-c1ccccc1Oc1ccccc1)N(C(=O)Cc1ccc(O)cc1)CCC2 | active: 79.4 µM | – | –
18 | COc1ccc(C(=O)N2CCC3(C2)C(=NC2CCCC2)NC(=O)N3c2cc(F)cc(F)c2)cc1 (stereo unspecified) | inconclusive: 50.1 µM [inhibitor, single point] | – | –
19 | CCOCCCNC(=O)C1CCCN1Cc1cccc(-c2ccc(C)c(Cl)c2)c1 (stereo unspecified) | inconclusive: 44.7 µM [inhibitor, partial curve, poor fit] | – | –
20 | O=C(Cc1c[nH]c2ccccc12)N1CCCN(c2cc(-c3ccc(Cl)cc3)[nH]n2)CC1 | active: 35.5 µM | – | –
21 | CC(C)(C)CCN1CC(Oc2cccc(C(=O)N3CCCC3)c2)C1 | – | inactive: 2.24% | –
22 | Cc1nnc2ccc(N3CCN(C(=O)C4CCCC4)CC3)nn12 | inconclusive: 89.1 µM [inhibitor, partial curve, poor fit] | – | –

Row | Compound | Potency | activity change, negative = cytotoxicity | outcome
23 | COCc1ccc(C(=O)N2CCC(c3[nH]ncc3-c3ccccc3)CC2)o1 | – | inactive: -22.3% | –
24 | COc1ccccc1-c1cc(NCc2cnccn2)c2onc(C)c2n1 | inconclusive: 89.1 µM [inhibitor, partial curve, poor fit] | – | –
25 | COc1ccccc1C(=O)NC1CCN(c2ccc3nnc(C4CC4)n3n2)CC1 | – | inactive: -22.8% | –
26 | Cc1ccc(NC2=N[C@H]3[C@@H](O)[C@H](O)C[C@H](C(=O)N4CCC(C(N)=O)CC4)[C@H]3S2)cc1 | – | inactive: 1.06% [at 174 µM] | –
27 | O=C(Nc1ccc2ncnc(N3CCCCC3)c2c1)c1ccsc1 | active: 25.1 µM | – | –
28 | COc1cc(NC(=S)N[C@H]2CO[C@H]3[C@@H]2OC[C@@H]3n2nnnc2Oc2cccc(N3CCOCC3)c2)cc(OC)c1 | – | inactive: -23.8% | –
29 | O=C(NCCc1ccccn1)c1ccc(OC2CCNCC2)nc1 | inconclusive: 56.2 µM [inhibitor, partial curve, poor fit] | – | –
30 | N#Cc1cccnc1-c1ccc(C(=O)N2CCC(NC(=O)C3CC3)CC2)cc1 | – | inactive: -22.2% | –
31 | COc1ccc(-c2noc(CC3CCN(C(=O)c4ccc(OC)cc4OC)CC3)n2)cc1 | inconclusive: 11.2 µM [inhibitor, partial curve, poor fit] | – | –
32 | CC(C)CCNC(=O)c1cnc2n1CCN(Cc1ccc(C(C)C)cc1)CC2 | inconclusive: 56.2 µM [inhibitor, partial curve, poor fit] | – | –
33 | CN1CCC(N2C[C@@H]3C[C@H]2C(=O)N(Cc2ccc(OC(F)(F)F)cc2)c2ccccc2O3)CC1 | active: 39.8 µM | – | –
34 | Cc1csc(NC(=O)c2nc3c(o2)CCN(Cc2cc(F)ccc2F)CC3)n1 | inconclusive: 44.7 µM [inhibitor, partial curve, poor fit] | – | –
35 | Cc1ccc(CN2CC(N(CC3CC3)C3CCOCC3)C2)cc1 | – | inactive: -19.3% | –
36 | CCC(=O)N1CCN(c2nc3c(s2)CC(C(=O)Nc2ccc(C(C)C)cc2)CC3)CC1 (stereo unspecified) | inconclusive: 50.1 µM [inhibitor, partial curve, poor fit] | – | –
37 | CCc1cc(=O)n(CC(=O)Nc2ccc(Br)cc2F)c(N2CCOCC2)n1 | inconclusive: 50.1 µM [inhibitor, partial curve, poor fit] | – | –
38 | CC(=O)c1ccc(NC(=O)Cn2c(-c3ccc(F)cc3)nc(C)cc2=O)cc1 | inconclusive: 14.1 µM [inhibitor, full curve, poor fit] | – | –
39 | O=C(Nc1cc(F)ccc1F)N1CC(c2noc(-c3ccccc3)n2)C1 | inconclusive: 44.7 µM [inhibitor, partial curve, poor fit] | – | –
40 | Cn1ncc2c(C(=O)NCC(F)F)cc(-c3ccc(Cl)cc3Cl)nc21 | inconclusive: 35.5 µM [inhibitor, partial curve, poor fit] | – | –
41 | Cc1ncccc1C(=O)N1C[C@@H](Oc2cccnc2)C[C@H]1C(=O)N1CCCC1 | – | inactive: -4.89% | –
42 | CCN(CC)Cc1nc(C2(O)CCN(CCC(C)C)CC2)cs1 | inconclusive: 100 µM [inhibitor, partial curve, poor fit] | – | –
43 | COc1cc(C)ccc1S(=O)(=O)N1CCCCC1CN1CCOCC1 (stereo unspecified) | – | inactive: -1.02% | –
44 | Cc1ccc([S+](=O)([O-])NCCNC(=O)c2cccc(-c3ccsc3)c2)cc1 | inconclusive: 50.1 µM [inhibitor, partial curve, poor fit] | – | –

Row | Compound | Potency | activity change, negative = cytotoxicity | outcome
45 | Cc1cc(C2CCCCN2C(=O)Nc2cccc(-c3csc(C)n3)c2)no1 (stereo unspecified) | inconclusive: 50.1 µM [inhibitor, partial curve, poor fit] | – | –
46 | COc1ccc(Cn2c3c(c(=O)n2Cc2ccccc2)CCN(C(=O)Cc2cccc(Cl)c2)C3)cc1 | inconclusive: 2.82 µM [inhibitor, full curve, poor fit] | – | –
47 | COCCCNC(=O)c1ccc2nnc(Cc3ccc(Cl)cc3)n2c1 | inconclusive: 100 µM [inhibitor, partial curve, poor fit] | – | –
48 | COC1CN(c2cccc(F)c2)C12CCN(C(=O)CCCc1ccccc1)CC2 (stereo unspecified) | inconclusive: 50.1 µM [inhibitor, partial curve, poor fit] | – | –
49 | c1ccc(CN2Cc3[nH]cnc3C[C@H]2c2nc(-c3ccncc3)no2)cc1 | inconclusive: 35.5 µM [inhibitor, partial curve, poor fit] | – | –
50 | CCN1c2cc(C(=O)Nc3ccc(OC)cc3OC)ccc2C(=O)N2CCCCCC21 (stereo unspecified) | inconclusive: 50.1 µM [inhibitor, single point] | – | –
51 | Cc1ccc(Nc2ccnc(N3CCC(NC(=O)Nc4ccc(Cl)cc4)CC3)n2)cc1 | active: 22.4 µM | – | –
52 | O=Cc1ccc(-c2ccc(C(=O)O)cn2)cc1 | inconclusive: 112 µM [inhibitor, single point] | – | –
53 | Cc1[nH]cnc1CN1CCCC(C(=O)Nc2ccc(-c3cccc(F)c3)cc2)C1 (stereo unspecified) | inconclusive: 22.4 µM [inhibitor, full curve, poor fit] | – | –
54 | Cc1ccc(-c2cc(N3CCCN(C(=O)c4nn(C)c5ccccc45)CC3)n[nH]2)cc1C | inconclusive: 44.7 µM [inhibitor, partial curve, poor fit] | – | –
55 | COc1cccc(CN2Cc3nc(-c4cnn(Cc5ccccc5)c4)ccc3OCC2=O)c1 | inconclusive: 39.8 µM [inhibitor, partial curve, poor fit] | – | –
56 | C/C(=C\c1ccccc1)CN1CCC2(Cc3ccccc3CNC2=O)C1 (stereo unspecified) | inconclusive: 89.1 µM [inhibitor, single point] | – | –
57 | COc1ccc(CN2Cc3[nH]cnc3C[C@H]2c2nc(-c3ccc(F)c(Cl)c3)no2)cc1 | inconclusive: 44.7 µM [inhibitor, partial curve, poor fit] | – | –
58 | CCCN(CC1CCOC1)S(=O)(=O)c1cccc(F)c1 (stereo unspecified) | – | – | inactive
59 | O=C(c1ccc(Cl)cc1)N1CCC2(CC1)Cc1ccccc1NC2=O | inactive and active: 28.2 µM | – | –
60 | CCCC(=O)N1CCN(c2ccnc3ccnn23)CC1 | – | inactive: -9.11% [at 138 µM] | –
61 | CN1CC2(CCCN(CC3CC3)C2)c2cc(C(=O)NCCc3ccccc3)ccc21 (stereo unspecified) | active: 79.4 µM | – | –
62 | Cc1cn2nc(C(=O)Nc3ccc4c(c3)OCCO4)cc2c(N2CCSCC2)n1 | – | inactive: -15.5% | –
63 | CC(C)c1cc(C(=O)N2CCN(C)[C@@H]3CS(=O)(=O)C[C@@H]32)nc2ncnn12 | – | inactive: -0.864% | –
64 | NC(=O)CC1=C2CCCCC2N(Cc2ccccc2)C1=O (stereo unspecified) | – | – | inactive
65 | CC(C)CN1C(=O)CO[C@H](c2ccc(NC(=O)c3ccccc3)cc2)[C@H]1CO | inconclusive: 63.1 µM [inhibitor, partial curve, poor fit] | – | –
66 | CN(C)c1ccc(NC(=O)c2cc(-c3ccccc3C(F)(F)F)nc3c2cnn3C)cc1 | inconclusive: 14.1 µM [inhibitor, full curve] | – | –

Reference: PubChem BioAssay AID1345082 (National Center for Advancing Translational Sciences (NCATS), 2018)
